The supplement of paper PMC5499739
Over roughly 16,000 sequences, “Z-score” has its median near -0.37; the highest 2% begin near 3.2. The list shows a part of the results.

tested on: RBM10 RRM1-ZnF (GST-tagged construct); assay: RNAcompete 7-mer binding Z-score; higher = stronger binding preference
Outline: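 A one-sided Z-score for enrichment, taken across the probes containing each heptamer motif, was assigned to every such motif. The RNA came from a designed pool of 241 399 sequences up to 41 nt (1.5 nmol), bound by 20 pmol of GST-tagged RBM10 constructs in 1 ml Hepes pH 7.8 buffer with glutathione Sepharose beads for 30 min at 4°C. Four 2-min washes at 4°C preceded identification of bound RNA by microarray hybridisation.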

Row | Sequence | RNAcompete 7-mer binding Z-score
1 | ACGAAGC | -0.311
2 | AAGAAGA | 1.11
3 | AGAGGUU | 0.787
4 | GAAGAAC | 0.0528
5 | CCCGUAC | -0.642
6 | UCAGUUC | -0.805
7 | CGAAAUG | 0.03
8 | UGCAUUG | -0.337
9 | GUCUAUA | -0.607
10 | UUCGGUG | 0.108
11 | CGAUGUC | -0.662
12 | GUGAGAG | 1.85
13 | UGGUAUA | 0.936
14 | UCAAUGG | 0.54
15 | AAUGUCG | -0.184
16 | CACUAUU | -0.776
17 | UCUGCGC | -0.694
18 | AGACUCA | -0.883
19 | CUCCUUC | -0.795
20 | UGGCACU | 0.0203
21 | AUCACUA | -0.552
22 | CUAUUGC | -0.714
23 | AACCACU | -0.626

Row | Sequence | RNAcompete 7-mer binding Z-score
24 | UAAGUUC | -0.522
25 | CAGCGUG | 0.443
26 | UCCGCAA | -0.828
27 | AGUGGUA | 2.01
28 | CCGUGCA | -0.568
29 | GAGGGUG | 3.75
30 | GGCAGUC | 0.28
31 | UUGAGUG | 0.602
32 | AGUUCCG | -0.561
33 | CUCCACA | -0.685
34 | CCAGAAA | -0.717
35 | CGCUAUC | -0.668
36 | CCCAUAC | -0.844
37 | GUGAAAC | -0.0479
38 | UGGAAGA | 2.63
39 | UAGGGCG | 2.22
40 | UAGUAGC | -0.0739
41 | AGAUACC | -0.873
42 | GUGUGCC | -0.0382
43 | GGACGGU | 2.29
44 | UUCCUAU | -0.873
45 | CAUCCAA | -0.759
46 | UGUUAAA | -0.532

Row | Sequence | RNAcompete 7-mer binding Z-score
47 | UGAUCCU | -0.743
48 | GGUUAGG | 4.59
49 | UAUUUUG | -0.733
50 | AGAACGA | -0.288
51 | GAAGCUU | -0.578
52 | GCCGGAA | 0.332
53 | UAGGCAG | 1.17
54 | CCUGGAA | -0.522
55 | AUUCGGG | 0.966
56 | CCCCGGA | -0.0837
57 | GUGGAAG | 3.83
58 | CCAACCC | -0.61
59 | CAAGCAG | -0.0122
60 | UCUUAUA | -0.821
61 | UCCCCAC | -0.402
62 | AGCGGCC | -0.305
63 | AUCCUUG | -0.772
64 | CUCCACU | -0.785
65 | GAAAAUA | -0.0674
66 | GACAUCU | -0.662
67 | UGCGCGG | 0.621
68 | GUUGUCU | -0.597
69 | GAGAAAG | 1.53

Row | Sequence | RNAcompete 7-mer binding Z-score
70 | UCCGGAC | -0.539
71 | AGAAGGC | 0.699
72 | ACUAUUC | -0.847
73 | CGAGAAU | -0.0674
74 | AUCUAGG | 0.179
75 | UGCUUAC | -0.766
76 | GGCCCUG | -0.269
77 | AGAGUGU | 0.638
78 | GACAUUA | -0.337
79 | GUCCCAU | -0.591
80 | CGACACG | -0.0739
81 | GGAGGCC | 0.953
82 | UAAAUUG | -0.305
83 | ACCCCCU | -0.542
84 | AUGUUUC | -0.477
85 | GCGUACU | -0.331
86 | CCCCCAC | -0.214
87 | AGUACUU | -0.636
88 | CGGCGGU | 0.69
89 | CUUACUC | -0.815
90 | ACAGGCC | -0.0512
91 | CCACCCG | -0.389
92 | GCGAAGG | 2.06
